± gives the standard deviation of the averaged measurements. The list shows a part of the results.
These sequences were tested on PfAP2-EXP AP2 domain (GST-tagged) (assay: gcPBM binding intensity (ln(normalized median fluorescence intensity)); higher = stronger DNA binding).
Summary of the method: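 Each value is the highest Masliner-normalised natural-log median intensity across replicate spots of either orientation of a probe. The probes were primer-extended double-stranded 36-bp intergenic genomic sequences on an Agilent 4 × 180k array, alongside negative controls, exposed for 1 h to GST-tagged P. falciparum DNA-binding domains expressed in E. coli. Bound protein was picked up with Alexa488 anti-GST antibody and scanned at 488 nm.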

Sequence	gcPBM binding intensity (ln)
ATTTTAATACTTTTATATTAAATGTAGCACATCATA [XGTACX_negctrl_site273]	8.45 ± 0.59
AAAGTAAAAAAAAAAACATGCATACGCTAATTTTTA [TGCATGCA_site301]	8.06 ± 0.42
GATATGTTAAATATATGTACATATATAAACCCAAAC [XGTACX_site6601]	8.9 ± 0.38
AAAAAGTGATTAAAATGTACAAAATGCATAAAAGAA [XGTACX_site6625]	9.39 ± 0.41
TTATTTATTTAGTAGTGTACTTTTTATATTTATAAT [XGTACX_site5978]	8.52 ± 0.38
CATTTTTTGCTTTCAACACACATACAATATAAATAA [CACACA_site7858]	8.65 ± 0.2
AAAAAAAAAAAATACACACACATATATATATATATA [CACACA_site2224]	10.2 ± 0.23
TATGTAATAAATAGTACACACACACCGATATATATA [CACACA_site8389]	8.91 ± 0.43
TATAATAATATTATAGTGCATATTATTTATATATAA [GTGCAC_site9820]	8.22 ± 0.2
TTTCTTTCTTCACATATATATATATATATATTTATA [TGCATGCA_negctrl_site341]	8.83 ± 0.3
TAATAGAATATGATGGTGCAGCAGTCTTATTTTTCA	8.66 ± 0.41
TACATATAATATATTGCACACGTCAGAATAATATAG [CACACA_site1744]	8.57 ± 0.13
CCCCCCCACGGACACACACACATACATACCACATAT [CACACA_site5303]	10.3 ± 0.19
TTAGCCATTAATTCTCTACACACCTTTATGTTATTT [CACACA_site9212]	8.74 ± 0.35
TTTTATAATATTTAAAGTACATTCTAAAAATATAAT [XGTACX_site8033]	8.05 ± 0.23
TATAATTATTTTTTTCTAAATATTATAAGGTATTCA [GTGCAC_negctrl_site205]	7.87 ± 0.4
AAATAAAATAAAATAAAATAAAATTCTTTGATACCT [TGCATGCA_negctrl_site604]	8.33 ± 0.42
ATTTTTTTTTTTTTTTTTTTTTTTTAGATTAAGAAA [CACACA_negctrl_site1272]	7.96 ± 0.57
CTATTTATTATATATACATGCATATATATATTAATA [TGCATGCA_site527]	8.46 ± 0.26
TATTCTAATTTTTAAACACACAAATATAAATAAGTA [CACACA_site3149]	8.29 ± 0.42
TATTCATATTTAAAGGTGCAATATTTATTTTGTACA	8.23 ± 0.16
TAAAAATGTGTATGTACACACTTTATTTTTAATACA [CACACA_site7235]	8.41 ± 0.15
GATAATTATGGACACACACACACACCCACAACTAAA [CACACA_site8824]	8.81 ± 0.42

Sequence	gcPBM binding intensity (ln)
AAAAAGAATGTGAACACACACATTGAATCTAATTTA [CACACA_site6711]	8.21 ± 0.42
TATTAAACGAAACACACACACACACCCATATATAAA [CACACA_site759]	8.73 ± 0.54
TATATAAAAAATTCAATACACACCATATATAAATAT [CACACA_site3987]	8.59 ± 0.35
ACATATAATATATATATATATATATATATATATAAT [GTGCAC_negctrl_site648]	8.66 ± 0.18
AGATGATATATTATATATCCTTTTAATAAATGTAAT [CACACA_negctrl_site730]	8.07 ± 0.44
TATTTTTCCATATGCACACACACCGTATATATAATA [CACACA_site1127]	9.28 ± 0.54
ATAACAAAATAAAACACACACACAAATGTACATATA [CACACA_site2425]	8.9 ± 0.42
AAATAAATAATTTAATGTACATATATAATATATATA [XGTACX_site1831]	8.5 ± 0.11
CATATACACCAACACACACACACACCCACAAAAAAA [CACACA_site496]	8.53 ± 0.4
CTTTTTAATAAATATACACACACAAAAAAAAAAAAA [CACACA_site9316]	8.36 ± 0.59
TAAATAAAGTATAATGCATGCTATTATAATATTAAT [TGCATGCA_site825]	9.11 ± 0.28
CACTTTATACGTAATTGTACTTTTTCTTTTTTTTAT [XGTACX_site3175]	8.89 ± 0.4
ACTTACTAATTAATGGGTACATACACACATATATAC [XGTACX_site1362]	8.79 ± 0.36
TATTCAAAGAAAGACAGTACGTGTAGCAAACAACCT [XGTACX_site4218]	8.75 ± 0.16
AATAAAAAAATAGAAACACACATTAAAAAAAATAAA [CACACA_site1333]	8.56 ± 0.5
ATGATATATAGACACACACACATATTTATATACATT [CACACA_site6404]	8.55 ± 0.35
TGTTAATAAAGGTGTACACAAAATAAAAAAAATTAT [CACACA_site4288]	9.04 ± 0.28
TTTGTATAGTTGTAGGTGCATATCATTTTTAAATGT [GTGCAC_site9708]	8.815 ± 0.021
AAAAAAAAAGGTAACGCATGCTTTTAGATTATATTA [TGCATGCA_site398]	8.8 ± 0.32
TATAATTATATTTGGAGTACAAATTTTTTTTTTTTT [XGTACX_site7494]	8.3 ± 0.32
AAGTATGCTTGCTACTTATTAAGTGGCAATATAATT [XGTACX_negctrl_site74]	8.41 ± 0.31
AGAACCATATATAAATGTACATGTTAATATGAATAA [XGTACX_site130]	8.7 ± 0.33
